Reference: paper PMC13248759
Where a chain is given by its changes, count along the chain named. No constants are given. Whether binding was seen depends on the method and setting. Binding seen in cells or lysates may run through a third protein. Some binding calls cover weakened binding; strength is not graded here. For part of these data: Tags and fused reporters may be left off the sequences shown.

Protein sequences, listed by entry. Tags and fused reporters are not part of them.
UniProt Q9Y5X1: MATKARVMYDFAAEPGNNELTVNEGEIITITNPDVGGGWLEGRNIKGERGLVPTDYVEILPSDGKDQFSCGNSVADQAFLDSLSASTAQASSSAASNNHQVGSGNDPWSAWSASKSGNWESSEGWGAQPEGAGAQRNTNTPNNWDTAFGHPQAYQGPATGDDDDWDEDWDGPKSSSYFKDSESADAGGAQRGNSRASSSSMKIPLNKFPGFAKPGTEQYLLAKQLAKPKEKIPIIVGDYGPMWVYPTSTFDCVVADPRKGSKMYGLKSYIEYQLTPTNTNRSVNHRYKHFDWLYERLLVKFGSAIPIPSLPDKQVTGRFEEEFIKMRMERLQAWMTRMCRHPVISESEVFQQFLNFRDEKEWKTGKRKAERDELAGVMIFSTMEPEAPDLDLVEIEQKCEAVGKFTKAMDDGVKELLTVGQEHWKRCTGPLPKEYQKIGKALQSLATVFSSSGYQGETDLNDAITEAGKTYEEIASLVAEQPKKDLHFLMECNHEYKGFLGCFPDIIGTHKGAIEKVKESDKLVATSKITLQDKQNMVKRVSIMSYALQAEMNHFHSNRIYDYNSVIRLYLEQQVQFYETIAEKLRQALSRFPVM
UniProt P63010: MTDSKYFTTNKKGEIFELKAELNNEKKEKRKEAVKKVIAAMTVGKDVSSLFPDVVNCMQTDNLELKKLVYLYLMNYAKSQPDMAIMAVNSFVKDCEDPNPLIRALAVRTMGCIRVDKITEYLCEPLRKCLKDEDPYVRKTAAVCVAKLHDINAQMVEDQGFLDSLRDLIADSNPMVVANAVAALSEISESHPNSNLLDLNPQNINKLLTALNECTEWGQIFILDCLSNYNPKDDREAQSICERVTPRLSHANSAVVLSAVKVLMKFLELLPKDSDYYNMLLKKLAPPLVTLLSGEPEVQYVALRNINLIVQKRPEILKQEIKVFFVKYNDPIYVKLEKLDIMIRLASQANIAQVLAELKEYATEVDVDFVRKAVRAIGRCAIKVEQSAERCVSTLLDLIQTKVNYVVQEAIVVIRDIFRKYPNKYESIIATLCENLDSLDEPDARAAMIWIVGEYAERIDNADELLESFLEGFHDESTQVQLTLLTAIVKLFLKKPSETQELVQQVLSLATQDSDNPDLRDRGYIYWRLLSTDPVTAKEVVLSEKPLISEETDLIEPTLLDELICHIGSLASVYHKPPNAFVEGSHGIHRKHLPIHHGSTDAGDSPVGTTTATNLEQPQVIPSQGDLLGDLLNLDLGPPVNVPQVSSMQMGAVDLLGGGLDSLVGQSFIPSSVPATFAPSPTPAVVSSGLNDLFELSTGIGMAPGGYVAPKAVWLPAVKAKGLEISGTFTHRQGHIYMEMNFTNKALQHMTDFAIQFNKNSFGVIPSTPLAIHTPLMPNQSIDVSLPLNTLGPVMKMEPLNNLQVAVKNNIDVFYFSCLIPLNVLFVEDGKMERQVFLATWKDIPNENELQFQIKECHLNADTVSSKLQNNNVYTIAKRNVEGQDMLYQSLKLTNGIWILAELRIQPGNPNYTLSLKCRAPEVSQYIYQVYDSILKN
UniProt Q00987: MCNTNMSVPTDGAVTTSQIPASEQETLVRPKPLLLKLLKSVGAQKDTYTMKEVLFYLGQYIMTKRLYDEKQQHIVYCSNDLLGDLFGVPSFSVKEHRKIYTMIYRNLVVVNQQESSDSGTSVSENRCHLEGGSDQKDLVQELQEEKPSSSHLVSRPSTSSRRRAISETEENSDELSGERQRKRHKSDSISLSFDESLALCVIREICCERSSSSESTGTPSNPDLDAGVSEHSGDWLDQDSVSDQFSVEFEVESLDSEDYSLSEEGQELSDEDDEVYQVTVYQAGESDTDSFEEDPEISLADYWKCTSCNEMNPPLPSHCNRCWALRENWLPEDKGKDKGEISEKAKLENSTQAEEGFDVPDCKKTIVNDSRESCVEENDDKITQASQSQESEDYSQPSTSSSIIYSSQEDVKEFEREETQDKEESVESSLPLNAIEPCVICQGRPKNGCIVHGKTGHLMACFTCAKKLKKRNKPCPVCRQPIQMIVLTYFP

What was measured:
[1] = molecular target: T1, NUMB, endogenous (human (endogenous in HEK-293, MCF10A, HBL-100)) (UniProt P49757); experiment: co-IP; endogenous proteins from MCF10A cells (Figure S1B,C)
T1 sequence: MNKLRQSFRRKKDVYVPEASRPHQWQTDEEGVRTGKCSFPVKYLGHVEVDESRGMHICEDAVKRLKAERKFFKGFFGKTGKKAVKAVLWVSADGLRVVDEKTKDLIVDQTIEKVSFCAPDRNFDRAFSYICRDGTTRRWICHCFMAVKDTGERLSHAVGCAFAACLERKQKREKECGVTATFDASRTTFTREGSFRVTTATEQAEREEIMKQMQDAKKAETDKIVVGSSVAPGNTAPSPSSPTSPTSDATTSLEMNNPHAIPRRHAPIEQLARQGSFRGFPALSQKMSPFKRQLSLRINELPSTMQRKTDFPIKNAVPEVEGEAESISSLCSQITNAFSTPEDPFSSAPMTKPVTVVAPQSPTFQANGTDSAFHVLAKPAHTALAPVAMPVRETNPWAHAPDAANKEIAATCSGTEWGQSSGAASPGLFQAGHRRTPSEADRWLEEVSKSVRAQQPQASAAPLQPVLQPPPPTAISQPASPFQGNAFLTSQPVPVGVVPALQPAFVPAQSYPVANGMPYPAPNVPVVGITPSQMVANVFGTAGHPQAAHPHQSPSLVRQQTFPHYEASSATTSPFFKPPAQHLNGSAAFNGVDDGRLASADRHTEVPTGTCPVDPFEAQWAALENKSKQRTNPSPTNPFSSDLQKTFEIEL

[2] = molecular target: T1, NUMB, endogenous (human (endogenous in HEK-293, MCF10A, HBL-100)); experiment: co-IP; endogenous proteins from HBL-100 cells (Figure S1B,C)
[3] = molecular target: T1, NUMB, endogenous (human (endogenous in HEK-293, MCF10A, HBL-100)); experiment: co-IP; endogenous proteins from HEK-293 lysate in JS buffer, anti-NUMB (AB21) or anti-SNX9 antibody on Protein A/G magnetic beads, 2 h at 4 C, immunoblot; in some panels SNX9 or NUMB siRNA
[4] = molecular target: T2, NUMB-1-F162V, FLAG-tagged (human) (UniProt P49757); experiment: co-IP; lysates of transfected HEK-293 cells in JS buffer (50 mM HEPES pH 7.5, 150 mM NaCl, 1% Triton X-100), anti-FLAG or anti-HA beads, 2 h at 4 C, immunoblot; in some panels SNX9 siRNA or graded amounts of SNX9-HA
T2 sequence: T1 sequence with F162V

NUMB-1-FLAG (human) = molecular target: T3, NUMB-1-FLAG (human) (UniProt P49757); experiment: as above
T3 sequence: T1 sequence

NUMB-1-GFP11 (human) = molecular target: T4, NUMB-1-GFP11 (human) (UniProt P49757); experiment: split reporter; tripartite split-GFP: SNX9-GFP10 and NUMB-1-GFP11 transfected into HEK-293 cells stably expressing GFP 1-9 and KO for SNX9 and NUMB; GFP fluorescence imaged
T4 sequence: T1 sequence

sorting nexin 9 (SNX9), endogenous (from UniProt Q9Y5X1 1-595)
binding [1]: binds | binding [2]: binds | binding [3]: binds | binding [4]: no binding | binding (NUMB-1-FLAG (human)): binds

SNX9-HA (from UniProt Q9Y5X1 1-595)
binding (NUMB-1-FLAG (human)): binds

AP2B1 (AP2 complex subunit beta-1), endogenous (from UniProt P63010 1-937)
binding (NUMB-1-FLAG (human)): binds

SNX9-WT-GFP10 (from UniProt Q9Y5X1 1-595)
binding (NUMB-1-GFP11 (human)): binds

MDM2-HA (from UniProt Q00987 1-491)
binding (NUMB-1-FLAG (human)): binds
